Data taken from the supplement of paper PMC8728848.
This is one part of the list.

Columns and labels:
Test in all cases: glycan array binding signal (z-score within array); higher = stronger binding
Settings in all cases: glycan notation: IUPAC condensed, linker removed
[1] = target: Neu5Ac(a2-6)Gal(b1-3)GlcNAc(b1-3)[Gal(b1-4)GlcNAc(b1-6)]Gal(b1-4)Glc
Outline: (§1)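 Glycan array data were curated from 3228 arrays in the Consortium for Functional Glycomics database and kept only where the protein sequence was available. Glycan names were converted to IUPAC-condensed notation, and columns mapping to the same glycan were averaged. The binding signal is a within-array Z-score, averaged across arrays of the same protein sequence at different concentrations or buffers and across linkers. Negative Z-scores can be read as non-binding.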

Neu5Ac(a2-6)Gal(b1-4)Glc = target: Neu5Ac(a2-6)Gal(b1-4)Glc
Outline: as §1

[2] = target: Neu5Ac(a2-6)Gal(b1-4)GlcNAc
Outline: as §1

[3] = target: Neu5Ac(a2-6)Gal(b1-4)GlcNAc(b1-2)Man
Outline: as §1

[4] = target: Neu5Ac(a2-6)Gal(b1-4)GlcNAc(b1-2)Man(a1-3)Man(b1-4)GlcNAc(b1-4)GlcNAc
Outline: as §1

[5] = target: Neu5Ac(a2-6)Gal(b1-4)GlcNAc(b1-2)Man(a1-3)[Gal(b1-4)GlcNAc(b1-2)Man(a1-6)]Man(b1-4)GlcNAc(b1-4)GlcNAc
Outline: as §1

[6] = target: Neu5Ac(a2-6)Gal(b1-4)GlcNAc(b1-2)Man(a1-3)[GlcNAc(b1-2)Man(a1-6)]Man(b1-4)GlcNAc(b1-4)GlcNAc
Outline: as §1

[7] = target: Neu5Ac(a2-6)Gal(b1-4)GlcNAc(b1-2)Man(a1-3)[GlcNAc(b1-4)][Neu5Ac(a2-6)Gal(b1-4)GlcNAc(b1-2)Man(a1-6)]Man(b1-4)GlcNAc(b1-4)GlcNAc
Outline: as §1

[8] = target: Neu5Ac(a2-6)Gal(b1-4)GlcNAc(b1-2)Man(a1-3)[Man(a1-6)]Man(b1-4)GlcNAc(b1-4)GlcNAc
Outline: as §1

[9] = target: Neu5Ac(a2-6)Gal(b1-4)GlcNAc(b1-2)Man(a1-3)[Neu5Ac(a2-3)Gal(b1-4)GlcNAc(b1-2)Man(a1-6)]Man(b1-4)GlcNAc(b1-4)GlcNAc
Outline: as §1

[10] = target: Neu5Ac(a2-6)Gal(b1-4)GlcNAc(b1-2)Man(a1-3)[Neu5Ac(a2-6)Gal(b1-4)GlcNAc(b1-2)Man(a1-6)]Man(b1-4)GlcNAc(b1-4)GlcNAc
Outline: as §1

[11] = target: Neu5Ac(a2-6)Gal(b1-4)GlcNAc(b1-2)Man(a1-3)[Neu5Ac(a2-6)Gal(b1-4)GlcNAc(b1-2)Man(a1-6)]Man(b1-4)GlcNAc(b1-4)[Fuc(a1-6)]GlcNAc
Outline: as §1

[12] = target: Neu5Ac(a2-6)Gal(b1-4)GlcNAc(b1-2)Man(a1-6)Man(b1-4)GlcNAc(b1-4)GlcNAc
Outline: as §1

[13] = target: Neu5Ac(a2-6)Gal(b1-4)GlcNAc(b1-2)Man(a1-6)[Gal(b1-4)GlcNAc(b1-2)Man(a1-3)]Man(b1-4)GlcNAc(b1-4)GlcNAc
Outline: as §1

[14] = target: Neu5Ac(a2-6)Gal(b1-4)GlcNAc(b1-2)Man(a1-6)[GlcNAc(b1-2)Man(a1-3)]Man(b1-4)GlcNAc(b1-4)GlcNAc
Outline: as §1

[15] = target: Neu5Ac(a2-6)Gal(b1-4)GlcNAc(b1-2)Man(a1-6)[Man(a1-3)]Man(b1-4)GlcNAc(b1-4)GlcNAc
Outline: as §1

[16] = target: Neu5Ac(a2-6)Gal(b1-4)GlcNAc(b1-2)[Neu5Ac(a2-6)Gal(b1-4)GlcNAc(b1-4)]Man(a1-3)[GlcNAc(b1-4)][Neu5Ac(a2-6)Gal(b1-4)GlcNAc(b1-2)[Neu5Ac(a2-6)Gal(b1-4)GlcNAc(b1-6)]Man(a1-6)]Man(b1-4)GlcNAc(b1-4)GlcNAc
Outline: as §1

[17] = target: Neu5Ac(a2-6)Gal(b1-4)GlcNAc(b1-2)[Neu5Ac(a2-6)Gal(b1-4)GlcNAc(b1-4)]Man(a1-3)[GlcNAc(b1-4)][Neu5Ac(a2-6)Gal(b1-4)GlcNAc(b1-4)Man(a1-6)]Man(b1-4)GlcNAc(b1-4)GlcNAc
Outline: as §1

[18] = target: Neu5Ac(a2-6)Gal(b1-4)GlcNAc(b1-2)[Neu5Ac(a2-6)Gal(b1-4)GlcNAc(b1-6)]Man(a1-6)[Neu5Ac(a2-6)Gal(b1-4)GlcNAc(b1-2)Man(a1-3)][GlcNAc(b1-4)]Man(b1-4)GlcNAc(b1-4)GlcNAc
Outline: as §1

[19] = target: Neu5Ac(a2-6)Gal(b1-4)GlcNAc(b1-3)Gal(b1-3)GlcNAc
Outline: as §1

[20] = target: Neu5Ac(a2-6)Gal(b1-4)GlcNAc(b1-3)Gal(b1-4)GlcNAc
Outline: as §1

[21] = target: Neu5Ac(a2-6)Gal(b1-4)GlcNAc(b1-3)Gal(b1-4)GlcNAc(b1-2)Man(a1-3)[Neu5Ac(a2-6)Gal(b1-4)GlcNAc(b1-3)Gal(b1-4)GlcNAc(b1-2)Man(a1-6)]GalNAc
Outline: as §1

[22] = target: Neu5Ac(a2-6)Gal(b1-4)GlcNAc(b1-3)Gal(b1-4)GlcNAc(b1-3)Gal(b1-4)GlcNAc
Outline: as §1

[23] = target: Neu5Ac(a2-6)Gal(b1-4)GlcNAc(b1-3)Gal(b1-4)GlcNAc(b1-3)Gal(b1-4)GlcNAc(b1-2)Man(a1-3)[Neu5Ac(a2-6)Gal(b1-4)GlcNAc(b1-3)Gal(b1-4)GlcNAc(b1-3)Gal(b1-4)GlcNAc(b1-2)Man(a1-6)]GalNAc
Outline: as §1

[24] = target: Neu5Ac(a2-6)Gal(b1-4)GlcNAc(b1-3)Gal(b1-4)GlcNAc(b1-3)GalNAc
Outline: as §1

[25] = target: Neu5Ac(a2-6)Gal(b1-4)GlcNAc(b1-3)Gal(b1-4)GlcNAc(b1-3)[Neu5Ac(a2-6)Gal(b1-4)GlcNAc(b1-3)Gal(b1-4)GlcNAc(b1-6)]GalNAc
Outline: as §1

[26] = target: Neu5Ac(a2-6)Gal(b1-4)GlcNAc(b1-3)Gal(b1-4)GlcNAc(b1-6)[Gal(b1-3)]GalNAc
Outline: as §1

[27] = target: Neu5Ac(a2-6)Gal(b1-4)GlcNAc(b1-3)Gal(b1-4)[Fuc(a1-3)]GlcNAc(b1-3)Gal(b1-4)[Fuc(a1-3)]GlcNAc
Outline: as §1

[28] = target: Neu5Ac(a2-6)Gal(b1-4)GlcNAc(b1-3)GalNAc
Outline: as §1

[29] = target: Neu5Ac(a2-6)Gal(b1-4)GlcNAc(b1-3)[Neu5Ac(a2-6)Gal(b1-4)GlcNAc(b1-6)]GalNAc
Outline: as §1

[30] = target: Neu5Ac(a2-6)Gal(b1-4)GlcNAc(b1-6)GalNAc
Outline: as §1

[31] = target: Neu5Ac(a2-6)Gal(b1-4)GlcNAc(b1-6)[Gal(b1-3)GlcNAc(b1-3)]Gal(b1-4)Glc
Outline: as §1

[32] = target: Neu5Ac(a2-6)Gal(b1-4)GlcNAc(b1-6)[Gal(b1-3)]GalNAc
Outline: as §1

[33] = target: Neu5Ac(a2-6)Gal(b1-4)GlcNAc6S
Outline: as §1

Neu5Ac(a2-6)GalNAc = target: Neu5Ac(a2-6)GalNAc
Outline: as §1

[34] = target: Neu5Ac(a2-6)GalNAc(b1-4)GlcNAc
Outline: as §1

[35] = target: Neu5Ac(a2-6)GalNAc(b1-4)GlcNAc6S
Outline: as §1

[36] = target: Neu5Ac(a2-6)GlcNAc(b1-4)GlcNAc
Outline: as §1

B1: SP8524D-bot-399-27-399 (Bacteroides ovatus) (protein)
chain: DAKYDTLDTHAYIEEALSSTSQKVTVQATGESFTTLNVHLSNLSSTDNHYKLVTDQSVLDTYNHINGTGYIMLPKDYYTLPETITVKAGQYAADALSIALKAFSQEMMKSGESYALPVKLVLQDGSISPMENTGTFVILAESIIEFSAPMFVGAPSLKANKFTESPETYSQYTIEVRFQVANTADRDRAVFKNGGDDANFILLRFEDPQSDNENYKAHSLVQIVGRNRLYLNPSNSFKPNEWQHLALVCDGSNYRLYINGVDSGVLSIPTGATTFSDVNWFCLGDDSYSRWGNCKILMSEARIWSVVRSASQIQNNMTQVSPKSVGLEAYWRFNEGQGNVFEDATGKGHTLTTSATPTWIDGILSTDKSTEWK
glycan array binding signal (z-score) [1]: -0.08
glycan array binding signal (z-score) (Neu5Ac(a2-6)Gal(b1-4)Glc): 0.276
glycan array binding signal (z-score) [2]: -0.31
glycan array binding signal (z-score) [3]: -0.111
glycan array binding signal (z-score) [4]: -0.221
glycan array binding signal (z-score) [5]: -0.299
glycan array binding signal (z-score) [6]: -0.361
glycan array binding signal (z-score) [7]: 0.589
glycan array binding signal (z-score) [8]: -0.158
glycan array binding signal (z-score) [9]: -0.148
glycan array binding signal (z-score) [10]: -0.165
glycan array binding signal (z-score) [11]: 0.024
glycan array binding signal (z-score) [12]: -0.38
glycan array binding signal (z-score) [13]: -0.328
glycan array binding signal (z-score) [14]: -0.183
glycan array binding signal (z-score) [15]: 0.215
glycan array binding signal (z-score) [16]: -0.68
glycan array binding signal (z-score) [17]: 0.44
glycan array binding signal (z-score) [18]: -0.281
glycan array binding signal (z-score) [19]: -0.197
glycan array binding signal (z-score) [20]: -0.179
glycan array binding signal (z-score) [21]: 0.437
glycan array binding signal (z-score) [22]: -0.075
glycan array binding signal (z-score) [23]: 0.088
glycan array binding signal (z-score) [24]: -0.398
glycan array binding signal (z-score) [25]: -0.021
glycan array binding signal (z-score) [26]: -0.586
glycan array binding signal (z-score) [27]: -0.049
glycan array binding signal (z-score) [28]: -0.138
glycan array binding signal (z-score) [29]: -0.217
glycan array binding signal (z-score) [30]: -0.332
glycan array binding signal (z-score) [31]: -0.38
glycan array binding signal (z-score) [32]: 0.19
glycan array binding signal (z-score) [33]: -0.415
glycan array binding signal (z-score) (Neu5Ac(a2-6)GalNAc): -0.205
glycan array binding signal (z-score) [34]: -0.221
glycan array binding signal (z-score) [35]: -0.172
glycan array binding signal (z-score) [36]: 0.417
